Publication PMC6919601, “Identification of Plasmodium dipeptidyl aminopeptidase allosteric inhibitors by high throughput screening” (PLoS ONE, 2019)
The whole screen tested about 110,000 compounds, of which about 230 (0.21%) showed an effect of 50% or more. The list shows a part of the results.

What follows are compounds tested against DPAP1 (Plasmodium falciparum, UniProt Q8IIJ9) (assay: primary screen, percent inhibition; read by cleavage of a fluorogenic dipeptide substrate; higher = more effect of the substance).
Set-up: species or system P. falciparum D10 trophozoite lysates; single well
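Note: 30 min substrate incubation versus DMSO and 10 µM JCP410 controls.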

Chain of DPAP1 (Q8IIJ9 whole entry, looked up): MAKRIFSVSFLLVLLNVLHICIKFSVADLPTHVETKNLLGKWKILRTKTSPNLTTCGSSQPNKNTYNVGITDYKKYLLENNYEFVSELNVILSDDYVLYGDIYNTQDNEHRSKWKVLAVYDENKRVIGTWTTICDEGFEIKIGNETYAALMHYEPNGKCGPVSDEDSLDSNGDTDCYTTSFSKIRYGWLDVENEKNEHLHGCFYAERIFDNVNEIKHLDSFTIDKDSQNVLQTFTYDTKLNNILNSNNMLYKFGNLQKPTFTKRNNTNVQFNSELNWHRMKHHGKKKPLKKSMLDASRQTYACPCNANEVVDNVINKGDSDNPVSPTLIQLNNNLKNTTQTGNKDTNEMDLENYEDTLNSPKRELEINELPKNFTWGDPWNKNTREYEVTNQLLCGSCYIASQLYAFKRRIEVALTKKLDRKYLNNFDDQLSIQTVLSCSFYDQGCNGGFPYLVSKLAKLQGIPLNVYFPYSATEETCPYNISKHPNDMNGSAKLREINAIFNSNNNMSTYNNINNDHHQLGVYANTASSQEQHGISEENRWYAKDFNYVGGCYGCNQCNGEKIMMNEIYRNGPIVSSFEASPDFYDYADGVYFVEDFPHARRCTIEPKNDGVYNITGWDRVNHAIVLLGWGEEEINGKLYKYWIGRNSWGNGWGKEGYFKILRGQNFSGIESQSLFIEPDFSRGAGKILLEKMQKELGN

| SMILES | % Inhibition @ 10 uM [%] |
| --- | --- |
| CC(NCC(O)Cn1nnnc1-c1ccccc1)c1ccccc1 (stereo not drawn) | 2.5 |
| COc1ccc(-c2nc3s/c(=C\c4ccco4)c(=O)n3n2)cc1 | 0.487 |
| CN1CCN(C(=O)c2ccc(N)cc2C(=O)O)CC1 | -2.76 |
| CCOc1cccc2cc(-c3csc(NC(=O)CCC(=O)N4CCN(C)CC4)n3)c(=O)oc12 | 3.21 |
| Cc1ccc(OCC(=O)Nc2ccc(C)cc2C)cc1 | 5.69 |
| CCN(c1ccccc1)S(=O)(=O)c1ccc(NC(=O)c2ccc(Cl)cc2)cc1 | -5.6 |
| CCOc1ccc(-c2c(C)nn3c(O)c(N4CCc5ccccc5C4)c(C)nc23)cc1OCC | -0.72 |
| Cc1nn(CC(=O)NCc2cccc(Cl)c2)c(=O)c2nn(-c3ccccc3)c(C)c12 | -2.68 |
| O=C(Nc1cccc2ccccc12)c1ccc(Cl)cc1 | -1.29 |
| COc1cccc(CNC(=O)NCc2cccn2Cc2ccccc2)c1 | -3.15 |
| CC(C)(C)NC(=O)Cn1ncc2c3ccccc3n(Cc3ccccc3F)c2c1=O | 0.137 |
| Cc1cccc(C)c1OCCNC(=O)OCc1ccccc1 | -4.15 |
| Cc1cc(OCC(=O)NC2C3CC4CC(C3)CC2C4)ccc1Cl (stereo not drawn) | 2.98 |
| Oc1ccccc1-c1nc(/C=C/c2cccnc2)no1 | -3.53 |
| CCC1C(=O)N=C(SCC(=O)Nc2nc3ccc(C(=O)OC)cc3s2)NC1=O (stereo not drawn) | 4.54 |
| CCN(Cc1ccccc1)C(=O)C(Cc1ccccc1)NS(=O)(=O)c1cccc2nsnc12 (stereo not drawn) | -9.06 |
| CC(C)CCNC(=O)c1ccc(CNS(=O)(=O)c2ccc(F)cc2)cc1 | 5.28 |
| CC(C)NS(=O)(=O)c1ccc(CCC(=O)Nc2ccc(F)c(Cl)c2)cc1 | -9.29 |
| COc1ccc(-c2cn3nc(N4CCC(C(=O)NCCCN5CCCC5=O)CC4)sc3n2)cc1 | -2.77 |
| Cc1ccccc1C(=O)Nc1ccccn1 | 0.13 |
| COc1ccc(N2C(=O)CCC2(C#N)c2ccccc2OCc2ccccc2)cc1 (stereo not drawn) | 4.32 |
| COC(=O)c1c(NC(=O)c2cc(=O)c3cc(C)ccc3o2)sc2c1CCCC2 | -5.08 |
| CSc1ccc(NC(=O)c2sc3nc4c(cc3c2N)CCCC4)cc1 | -0.99 |
| O=C(Nc1ccc2c(c1)OCO2)c1ccccc1NC(=O)C1CCCCC1C(=O)O (stereo not drawn) | 4.11 |
| CC(O)c1nc2ccccc2n1CCCCOc1ccccc1 (stereo not drawn) | -0.28 |

| SMILES | % Inhibition @ 10 uM [%] |
| --- | --- |
| Cc1ccc(CNS(=O)(=O)c2ccc3[nH]c4c(c3c2)CCCC4)o1 | 0.434 |
| N=C(NOC(=O)CC1CCCCC1)c1ccncc1 | -0.0626 |
| Cc1nnc(C)n1/N=C/c1cc(Br)cc(Br)c1O | 10.6 |
| O=C(CC(c1cccs1)N1Cc2ccccc2C1=O)NC1CCCC1 (stereo not drawn) | -0.767 |
| O=C(C1CCCN(S(=O)(=O)N2CCOCC2)C1)N1CCN(Cc2ccccc2)CC1 (stereo not drawn) | 5.43 |
| COCCNC(=O)Cn1cc(C=O)c2ccccc21 | -2.72 |
| NC(=O)c1c(Nc2ccccc2)ccnc1O | 0.774 |
| CCOC(=O)N1CCN(C(=O)CSc2ncccn2)CC1 | -1.47 |
| c1ccc(C2=NCCCCN2)cc1 | 8.55 |
| N#C/C(=C\c1cccc2ccccc12)c1nc(-c2cccs2)cs1 | -0.239 |
| C=CC(C)(C#CCN(CC)CC)OC(C)=O (stereo not drawn) | -11.6 |
| COC(=O)c1ccc2c(c1)C(=O)/C(=C/c1ccc(OC)cc1OC)O2 | -3.08 |
| Cc1c(CC(=O)NCc2ccc3c(c2)OCO3)c(=O)oc2c(C)c(O)ccc12 | -0.808 |
| COc1ccc(C2=NN(CC(=O)NCCCN3CCN(C)CC3)C(=O)CC2)cc1 | 3.24 |
| CC(C)Oc1ccc(C(=O)N(Cc2ccco2)C2CCS(=O)(=O)C2)cc1 (stereo not drawn) | 0.569 |
| N#CC1(c2ccccc2)CCc2[nH]c3ccccc3c2C1 (stereo not drawn) | 5.04 |
| CC1=Nc2nnnn2C(c2ccc(C)cc2)/C1=C(\O)OC1CCCCC1 (stereo not drawn) | 3.61 |
| CNS(=O)(=O)c1cnccc1N1CCN(c2cccc(C)c2)CC1 | -1.59 |
| COc1ccc(-c2cnc(OC(C)(C)C)nc2OC(C)(C)C)cc1 | -0.185 |
| COc1cccc(C/N=C/C2=C(O)c3sccc3N(Cc3cccc(F)c3)S2(=O)=O)c1 | 2.27 |
| Cc1ccc(S(=O)(=O)N2CCN(Cc3ccccc3)CC2)cc1C | 1.4 |
| Cc1cn(CC(=O)O)c(=O)c2ccccc12 | 0.635 |
| CC(C)(C)c1ccc(C(=O)n2nc(-c3ccco3)nc2NCc2cccs2)cc1 | -5.08 |
| COc1cccc(C(=O)N2CCC3(CC2)N=C(c2ccc(C)cc2)C(=O)N3)c1 | 5.27 |
| CC1CCN(c2ncnc3c2nnn3Cc2ccccc2)CC1 | -5.72 |

| SMILES | % Inhibition @ 10 uM [%] |
| --- | --- |
| COc1ccc2c(c1OC)C(=O)N(c1nc[nH]n1)C2 | -3.77 |
| CS(=O)(=O)N(Cc1ccccc1)c1ccc(C(=O)Nc2ccccc2Br)cc1 | -5.67 |
| Cc1nc2sccn2c(=O)c1S(=O)(=O)N1CCN(c2ccccn2)CC1 | -0.0709 |
| COc1cccc(-c2cc(C(F)(F)F)n3ncc(-c4ccccc4)c3n2)c1 | -5.1 |
| CCOc1ccc(CC(=O)Nc2sc3c(c2C(N)=O)CCCC3)cc1OCC | -13.5 |
| CC1Cc2nc(SCC(=O)NCc3ccc(F)cc3)n(CCc3ccccc3)c(=O)c2S1 (stereo not drawn) | 3.67 |
| COC(=O)/C(C#N)=C/c1c[nH]c2ccccc12 | -1.99 |
| O=C(CCC1CCCC1)Nc1ccncc1 | -2.05 |
| COc1ccccc1-c1noc(CSc2nc3ccccc3[nH]2)n1 | -4.78 |
| CC1(C)CC(OC(=O)c2ccco2)CC(C)(C)N1OC(=O)c1ccc(-n2cnnn2)cc1 | -4.91 |
| Cc1cc(C)c(C(=O)/C=C/c2ccccc2F)c(O)n1 | 1.48 |
| CCOC(=O)c1ccc(-c2ccc(-c3c(C#N)c(N)n4c(nc5ccccc54)c3C#N)o2)cc1 | -4.24 |
| O=c1c2ccccc2nc(CSc2ncnc3[nH]cnc23)n1-c1cccc(C(F)(F)F)c1 | 1.62 |
| COC(=O)c1oc2ccccc2c1N | -8.96 |
| C#CCN(C(=O)c1cnoc1C)c1ccc(Cl)cc1 | -9.33 |
| CCOC(=O)c1c(C)[nH]c(C)c1S(=O)(=O)N1CCC(C(=O)N2CCN(C)CC2)CC1 | -0.188 |
| CCn1c(C(=O)NCc2ccc(F)cc2)cc2sc(Cl)cc21 | -4.85 |
| O=c1c(Cc2ccccc2)c(O)cc(-c2ccncc2)n1-c1ccc(Cl)cc1 | 0.674 |
| CCOC(=O)CCS(=O)(=O)c1ccc(Cl)c(Cl)c1 | 1.42 |
| CC(=O)N1CCC(N2CCN(c3ccccc3)CC2)CC1 | -0.0648 |
| c1ccc(CC2CCN(c3ncnc4sc5c(c34)CCCC5)CC2)cc1 | 2.92 |
| CCN(CCCNC(=O)c1sc2nc3n(c(=O)c2c1C)CCCCC3)Cc1ccccc1 | 1.79 |
| CC(=O)C(C(C)=O)=C(N)N1CCN(Cc2ccccc2)CC1 | 3.42 |
| Cc1ccc2[nH]c(C)c(/C=C3/C(=N)N4C(=NC3=O)SN=C4S(=O)(=O)CC(C)C)c2c1 | -1.58 |
| Cc1c(C(=O)O)oc2ccc(S(=O)(=O)NCc3ccccc3)cc12 | -5.92 |

| SMILES | % Inhibition @ 10 uM [%] |
| --- | --- |
| COCCNC(=O)CCc1c(C)nc2c(c(C)nn2-c2ccccc2)c1C | 0.953 |
| Cn1c(/C(C#N)=C/c2ccccc2)nc2ccccc21 | 5.94 |
| CCOc1ccc(-c2nocc2C#N)cc1 | -3.27 |
| Cc1ccc(F)c(NC(=O)c2cc(C(F)(F)F)nn2C)c1 | -4.01 |
| COc1ccc(-c2cc(C(F)(F)F)nc(SCC(=O)NCCCN3CCCC3=O)n2)cc1OC | 7.94 |
| COc1ccc(C(=O)NC2=C(C(=O)c3ccccc3)N(C)S(=O)(=O)c3ccccc32)cc1 | 0.275 |
| OCCCc1ccc(C(O)(C(F)(F)F)C(F)(F)F)o1 | 1.29 |
| O=C(NCCN1CCN(Cc2ccccc2Cl)CC1)C(=O)NCc1ccccc1 | -0.597 |
| O=C(O)C(Cc1ccc(O)cc1)c1ccccc1 (stereo not drawn) | 1.57 |
| CCOc1ccc(NC(=O)CN2C(=O)S/C(=C/c3ccc(O)cc3)C2=O)cc1 | 8.03 |
| N#CC1=C(N)Oc2cc(Nc3ccccc3)ccc2C1c1ccccc1 (stereo not drawn) | -0.99 |
| O=c1c2ccccc2nc(-c2ccccc2)n1-c1ccccn1 | -4.39 |
| COc1ccc(OC)c(CCNCc2c(C(=O)O)n(Cc3ccc(Cl)cc3)c3ccccc23)c1 | 0.277 |
| O=C(NC1CCCCC1)N1CCCCCCC1 | -0.551 |
| O=C(c1cccc(C(=O)N2CCN(c3cccc(Cl)c3)CC2)c1)N1CCN(c2cccc(Cl)c2)CC1 | -2.78 |
| Cc1oc2c(c(C)cc3oc(=O)c(CC(=O)O)c(C)c32)c1C | 0.558 |
| O=C(CCn1nc(-c2ccccc2)c2ccccc2c1=O)NCc1ccccc1 | 0.565 |
| CCOC(=O)c1cnc2c(C(F)(F)F)cccc2c1NCc1ccccc1 | 4.74 |
| O=C(CNS(=O)(=O)c1ccc(Br)cc1)Nc1ccc2c(c1)OCCO2 | 38.9 |
| Cc1cc(O)c(C2=NCCSC(c3ccc(C(C)C)cc3)C2)c(=O)o1 (stereo not drawn) | 6.43 |
| Cc1ccc(OCCOc2ccc(C=C3C(=O)NC(=O)NC3=O)cc2)cc1 | -2.26 |
| Cc1cc(F)ccc1-c1ccc(C(=O)N[C@@H](CC(C)C)C(=O)NCC#N)cc1 | -3.04 |
| N#CC1=C(N)N(c2cccnc2)C2=C(C(=O)CCC2)C1c1ccc(F)cc1 (stereo not drawn) | -2.87 |
| C=CCNC(=O)C(=O)NCCc1c[nH]c2ccccc12 | 3.25 |
